Results published in PubChem BioAssay AID1460 (National Center for Advancing Translational Sciences (NCATS), 2008).
Among all 270,000 compounds or so, about 5,800 (2.1%) were called active. The inconclusive results got no clear call from the source; some entries with a clear call stand among them for comparison. Calls come from the whole dose curve; as a rule, active = well fitted inhibition curve with a large enough effect; inconclusive = small, poorly fitted or top-dose-only effect; inactive = flat fitted curve, though single readings scatter. Potencies beside an inconclusive call are fits to weak or partial responses and may not hold up.

target: Microtubule-associated protein tau (Homo sapiens) (UniProt P10636); assay: qHTS for Inhibitors of Tau Fibril Formation, Thioflavin T Binding; conditions: recombinant tau K18 P301L, heparin-induced fibrillization, ThT fluorescence; series mostly up to 57.4 µM; note: nearly all actives have a fitted effect of over 55% in size
UniProt P10636, sequence (P10636 whole entry, looked up): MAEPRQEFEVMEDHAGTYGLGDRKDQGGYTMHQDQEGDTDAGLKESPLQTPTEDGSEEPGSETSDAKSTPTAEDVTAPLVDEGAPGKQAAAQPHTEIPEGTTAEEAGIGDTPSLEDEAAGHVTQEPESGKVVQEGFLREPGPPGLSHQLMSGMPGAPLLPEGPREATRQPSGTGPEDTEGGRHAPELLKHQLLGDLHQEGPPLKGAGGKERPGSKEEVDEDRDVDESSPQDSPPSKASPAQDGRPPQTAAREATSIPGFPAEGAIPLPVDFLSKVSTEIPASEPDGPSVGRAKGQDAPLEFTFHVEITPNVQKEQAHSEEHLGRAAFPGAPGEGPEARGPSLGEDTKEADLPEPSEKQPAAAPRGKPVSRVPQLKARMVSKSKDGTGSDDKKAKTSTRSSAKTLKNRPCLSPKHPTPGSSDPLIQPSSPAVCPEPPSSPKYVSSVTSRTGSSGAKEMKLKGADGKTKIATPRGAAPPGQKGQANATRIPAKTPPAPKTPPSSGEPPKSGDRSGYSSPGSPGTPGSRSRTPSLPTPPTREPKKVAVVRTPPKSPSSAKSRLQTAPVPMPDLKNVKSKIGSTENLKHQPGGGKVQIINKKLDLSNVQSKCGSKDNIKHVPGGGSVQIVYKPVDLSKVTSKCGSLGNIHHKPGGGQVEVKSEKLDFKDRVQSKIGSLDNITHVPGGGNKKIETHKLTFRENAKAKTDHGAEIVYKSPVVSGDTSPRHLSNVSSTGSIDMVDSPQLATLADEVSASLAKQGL
In short: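 Fibril formation assay: tau K18 P301L at 15 uM with trace Alexa 594 label, heparin inducer 20 uM, pH 7 sodium acetate buffer, 37 C for 6 hr; endpoint ThT signal.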
Potency is the fitted concentration of half-maximal effect; tags give direction and shape of the fitted curve.

| Compound | Potency |
| --- | --- |
| COc1ccc(C(=O)Oc2ccc(/C=N/NC(=O)c3ccccc3OC)cc2[N+](=O)[O-])cc1 | inconclusive: 3.16 µM [inhibitor, full curve] |
| Cn1cc(-c2cc3n(n2)CCC(=O)N3CCCC(=O)Nc2ccccc2Cl)c2ccccc21 | inconclusive: 12.6 µM [inhibitor, partial curve] |
| CSC1=N/C(=C\c2ccccc2Cl)C(=O)N1N(C)C | inconclusive: 28.2 µM [inhibitor, partial curve] |
| S=C(NCc1ccco1)N1CCOCC1 | inactive |
| COC(=O)NC(/C(C(=O)OC)=C(\C)NCc1ccccc1)c1ccc2ccccc2c1 (stereo not drawn) | inconclusive: 5.62 µM [inhibitor, partial curve] |
| Fc1ccc(N2CCN(Cc3c[nH]c4ccccc34)CC2)cc1 | inactive |
| CC(C(=O)NCc1cccc(Br)c1)n1ncn2cccc2c1=O (stereo not drawn) | inconclusive: 5.01 µM [activator, full curve, poor fit] |
| CS/C(=C/[N+](=O)[O-])Nc1cccc2c1C(C)CC2(C)C (stereo not drawn) | inconclusive: 17.8 µM [inhibitor, partial curve] |
| Brc1ccc2nc3c(n2c1)CCCC3 | inactive |
| COc1ccc(/C=C/C(=O)NC(=S)Nc2ccc(S(=O)(=O)Nc3ccc(OC)nn3)cc2)cc1 | inconclusive: 17.8 µM [inhibitor, partial curve] |
| CC(=O)N1CCN(c2ccc(NC(=O)c3cccc(OCc4ccccc4)c3)cc2)CC1 | inconclusive: 3.98 µM [inhibitor, full curve] |
| COC(=O)CCCC1=CC2=CC(=O)C(C)(OC(=O)c3cccs3)C(=O)C2=CN1c1ccc(OC)cc1 (stereo not drawn) | active: 10 µM |
| COc1ccc(N2CCN(C(=O)c3cn(C)c4ccc(S(=O)(=O)N(C)C5CCCCC5)cc4c3=O)CC2)cc1 | inactive |
| CC(C)(C)C1CCC(OC(=O)CN2CCCCC2)CC1 (stereo not drawn) | inactive |
| COc1cc2ccccc2cc1C(=O)Nc1cccc(-c2nc3ccccc3o2)c1 | inconclusive: 1.12 µM [inhibitor, full curve] |
| CCc1c(C)sc(NC(=O)c2cc(C)no2)c1C#N | inconclusive: 11.2 µM [inhibitor, partial curve] |
| CCCc1cc(=S)n2c([nH]c3ccccc32)c1C#N | inconclusive: 31.6 µM [inhibitor, partial curve] |
| Cc1cc(NC(=O)c2cc([N+](=O)[O-])cc([N+](=O)[O-])c2)no1 | inactive |
| O=C(OC[C@@H]1O[C@@](O)(COC(=O)c2cccnc2)[C@H](OC(=O)c2cccnc2)[C@H]1OC(=O)c1cccnc1)c1cccnc1 | inconclusive: 31.6 µM [inhibitor, single point] |
| CCN(CCCNC(=O)c1cn(CC)c2ccc(S(=O)(=O)N(C)C)cc2c1=O)c1cccc(C)c1 | inconclusive: 17.8 µM [inhibitor, partial curve] |
| FC(F)(F)c1cc(NC(=S)Nc2ccc3cc4ccccc4cc3c2)cc(C(F)(F)F)c1 | inconclusive: 15.8 µM [inhibitor, partial curve] |
| CCN1CCc2c(sc(NC(=O)Nc3ccc(Cl)c(Cl)c3)c2C(N)=O)C1 | inconclusive: 3.98 µM [activator, full curve] |
| CCCC1CCC(C(=O)Nn2cnc3ccccc3c2=O)CC1 (stereo not drawn) | inconclusive: 25.1 µM [inhibitor, partial curve] |

| Compound | Potency |
| --- | --- |
| COC(=O)NNC(=O)CCCOc1ccc(Cl)cc1Cl | inactive |
| O=C(COc1ccccc1)NC(=S)Nc1ccc(Br)cn1 | inconclusive: 1.58 µM [inhibitor, full curve, poor fit] |
| COc1ccccc1C(=O)O/N=C(/C)c1ccc(N2C(=O)C3CCCCC3C2=O)cc1 (stereo not drawn) | inconclusive: 2.51 µM [inhibitor, full curve, poor fit] |
| O=C(c1cccs1)c1cn(CCOc2ccc(F)cc2)c2ccccc12 | inactive |
| COc1ccc(-c2csc(=Nc3ccccc3)n2CCO)cc1 | inconclusive: 1.78 µM [inhibitor, partial curve, poor fit] |
| NS(=O)(=O)c1ccc(N=Nc2c(O)c(C(=O)O)cc3ccccc23)cc1 | active: 5.01 µM |
| Cc1ccc(NC(=O)Cn2sc3nc(C)cc(C)c3c2=O)c(Cl)c1 | active: 28.2 µM |
| COc1ccccc1N1CCN(CCCNc2cc(=O)n(C)c(=O)n2C)CC1 | inconclusive: 39.8 µM [inhibitor, single point] |
| COc1ccc2c(c1)CCc1c(C(=O)Nc3c(C)nn(Cc4c(Cl)cccc4Cl)c3C)noc1-2 | inconclusive: 22.4 µM [inhibitor, partial curve, poor fit] |
| Cc1ccc(-c2nc(C)sc2CC(=O)NCc2ccco2)cc1 | inconclusive: 17.8 µM [inhibitor, partial curve] |
| Nc1cccc(-c2nc3ccccc3s2)c1 | inconclusive: 12.6 µM [inhibitor, partial curve] |
| Cn1c(CO)c(-c2ccccc2)c2cc([N+](=O)[O-])ccc21 | inconclusive: 28.2 µM [inhibitor, partial curve] |
| Cn1c(=O)c2c(nc(SCC(=O)NCc3ccc4c(c3)OCO4)n2Cc2ccc(F)cc2)n(C)c1=O | inconclusive: 15.8 µM [inhibitor, single point] |
| COc1ccc(S(=O)(=O)Nc2ccc3c(c2)OCO3)cc1Cl | inconclusive: 22.4 µM [inhibitor, single point] |
| Cc1cc(C(=O)COC(=O)Cc2n[nH]c(=O)c3ccccc23)c(C)n1-c1ccc2c(c1)OCO2 | inconclusive: 14.1 µM [inhibitor, partial curve] |
| Cc1nn(CCC(=O)NCc2cccc(Br)c2)c(=O)c2nn(-c3ccccc3)c(C)c12 | inactive |
| Cc1oc2ncn(CC(C)C)c(=O)c2c1C(=O)Nc1cccc(C(F)(F)F)c1 | inactive |
| COc1ccc(-c2cc(=O)c3c(O)c(OC)c(O)cc3o2)cc1 | inconclusive: 11.2 µM [inhibitor, single point] |
| CCOc1ccc(NC(=O)c2ccc(NCC(=O)N3CCCCCC3)cc2)cc1 | inconclusive: 14.1 µM [inhibitor, partial curve, poor fit] |
| Cc1cc(Br)ccc1NC(=O)c1coc(=O)c2ccccc12 | inactive |
| O=C(Cc1ccc(Nc2nc3ccc(Br)cc3[nH]2)cc1)NCCc1cccs1 | inconclusive: 28.2 µM [inhibitor, partial curve] |
| COc1ccc(-c2cn(-c3ccc(C)cc3)c(S(=O)(=O)CC(=O)Nc3ccccc3)n2)cc1 | inactive |
| COc1cccc2cc(C(=O)NCCc3c[nH]c4ccccc34)c(=O)oc12 | inconclusive: 11.2 µM [inhibitor, partial curve] |

| Compound | Potency |
| --- | --- |
| CC(C)c1nnc(NC(=O)CCC(=O)N2CCN(C3c4ccccc4-c4ccccc43)CC2)s1 | inconclusive: 31.6 µM [inhibitor, single point] |
| COc1cc2c(cc1OC)CN(c1nc(-c3cccnc3)nc3ccccc13)CC2 | inconclusive: 25.1 µM [inhibitor, partial curve] |
| Cc1ccc(S(=O)(=O)N2CCN(c3cc4c(cc3[N+](=O)[O-])n(C)c(=O)n4C)CC2)cc1 | inconclusive: 31.6 µM [inhibitor, single point] |
| CCOC(=O)c1cnc(-c2ccccc2)nc1N | inconclusive: 12.6 µM [inhibitor, partial curve] |
| Cc1ccc2nc(-c3ccc(NC(=O)CSc4ccccc4)cc3)[nH]c2c1 | inconclusive: 7.94 µM [activator, full curve, poor fit] |
| Nc1c(C(=O)NCCc2ccccc2)sc2nc(N3CCOCC3)c3c(c12)CCCC3 | inconclusive: 15.8 µM [inhibitor, partial curve] |
| CCOC(=O)c1c(NC(=O)CSc2nncs2)sc(C)c1-c1ccccc1 | inconclusive: 28.2 µM [inhibitor, single point] |
| CCOc1ccc(NC(=O)Cn2sc3nc(C)cc(C)c3c2=O)cc1 | active: 12.6 µM |
| O=C(CSC1=NS(=O)(=O)c2ccccc21)Nc1ccccc1 | active: 31.6 µM |
| Cc1ccc(-c2nc(-c3cccnc3)sc2CC(=O)Nc2ccc3nc(C)sc3c2)cc1 | inconclusive: 17.8 µM [inhibitor, partial curve] |
| Cc1cc(Nc2cccc(F)c2)nc(-c2ccccc2O)n1 | inactive |
| C=CCn1c(SCC(=O)NNC(=S)Nc2ccccc2)nnc1-c1ccccc1 | inconclusive: 31.6 µM [inhibitor, single point] |
| CCN(CC)S(=O)(=O)c1ccc(NN=C2CCN(C(C)C)CC2)c([N+](=O)[O-])c1 | inactive |
| Nc1cc(Nc2ccc(Br)cc2)nc(N)n1 | inconclusive: 39.8 µM [inhibitor, partial curve] |
| CC(=O)Nc1cccc(-c2csc(Nc3cc(C)ccn3)n2)c1 | inconclusive: 8.91 µM [inhibitor, partial curve] |
| Cc1ccc2c(c1)C(O)(CC(=O)/C=C/C=C/c1ccccc1)C(=O)N2 (stereo not drawn) | inconclusive: 35.5 µM [inhibitor, single point] |
| CC(O)CCCCCCC/C=C/C=C/C(N)=O (stereo not drawn) | inconclusive: 5.01 µM [inhibitor, single point] |
| COc1ccc(NS(=O)(=O)c2ccc3c(c2)CCCN3C(=O)C2CCC2)cc1OC | inactive |
| COC(C(=O)NC1CC1)c1ccccc1 (stereo not drawn) | inactive |
| CC(C)(C)Nc1nc(NN)nc(NC(C)(C)C)n1 | inconclusive: 35.5 µM [inhibitor, partial curve, poor fit] |
| CCOC(=O)C1=C(C)NC(=S)NC1c1ccsc1 (stereo not drawn) | inactive |
| Cc1ccc2cc(C(c3nnnn3C(C)(C)C)N3CCCC3)c(=O)[nH]c2c1C (stereo not drawn) | inconclusive: 28.2 µM [inhibitor, single point] |
